Data taken from PubChem BioAssay (NCATS).
Where “and” joins values, the source holds several entries; their conditions need not be identical. Equal entries are not always repeated. The shares of active, inactive and inconclusive entries below differ from those in the screen. A call without a number means that no potency is given here. For some of these results: A potency beside an inconclusive call is a rough fit, not a confirmed value. Calls of active or inactive are those of the source. Unless noted, calls come from the whole dose curve; as a rule, active = well fitted curve in the direction sought with a large enough effect; inconclusive = small, poorly fitted or top-dose-only effect, or another doubt; inactive = no such curve, though single readings can be large; an effect the other way counts as inactive or inconclusive.

Tests used:
[1] = qHTS of pediatric cancer cell lines to identify multiple opportunities for drug repurposing: Primary screen for Saos-2 cells (AID 1347097); conditions: Saos-2 viability, CellTiter-Glo ATP luminescence, 48 h; activity change, negative = cytotoxic: at 46 µM (top of the series); note: nearly all actives have a fitted effect of over 40% in size; note: potency is the fitted concentration of half-maximal effect
Outline: (§1)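 500-1,000 cells/well; 5 h pre-incubation 37 °C/5% CO2; compound pinned; 48 h; CellTiter-Glo, 15 min RT; luminescence. MIPE 11-pt from 0.78 nM, NPC 8-pt from 0.59 nM final. Bortezomib 2.3 µM final as positive control.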

[2] = qHTS of pediatric cancer cell lines to identify multiple opportunities for drug repurposing: Primary screen for Rh41 cells (AID 1347108);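 note: luminescence drop marks cytotoxic hits; nearly all actives have a fitted effect of over 70% in size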
Outline: as §1

[3] = Primary qHTS for small molecule stabilizers of the endoplasmic reticulum resident proteome: Secreted ER Calcium Modulated Protein (SERCaMP) assay (AID 1508630); conditions: SH-SY5Y GLuc-SERCaMP (Gaussia luciferase released on ER calcium loss) secretion, thapsigargin, luminescence; activity change, negative = inhibition: at 38.4 µM (top of the series) unless noted; note: potency is the fitted concentration of half-maximal effect
Outline: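 The SH-SY5Y reporter protocol was run at 3 concentrations up to 38.3 uM (primary) or 11 concentrations (follow-up): 16 h compound, 100 nM thapsigargin for 4 h, then extracellular luciferase luminescence.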

[4] = tested on: UISO; assay: qHTS assay to identify novel small-molecules to repurpose for Merkel cell carcinoma treatment (AID 1296009); conditions: MCC and control cell lines, CellTiter-Glo viability, 72 h; series mostly up to 46 µM; note: nearly all actives have a fitted effect of over 60% in size; note: potency is the fitted concentration of half-maximal effect
Outline: (§2)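 Luminescence from CellTiter-Glo, read 10 min after addition at room temperature, reported viability following a 72 hr, 37 degree celsius treatment with NPC or MIPE compounds in titration; values normalized to plate controls.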

[5] = tested on: SKOV3; assay: Primary qHTS to identify gynecologic anti-cancer compounds using libraries of approved drugs and bioactive compounds (AID 1345084); conditions: Gynecologic cancer cell panel viability, ATPlite luminescence, 48 h; series mostly up to 57.5 µM; note: nearly all actives have a fitted effect of over 55% in size; note: potency is the fitted concentration of half-maximal effect
Outline: (§3)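 Cytotoxicity screen measuring ATP content by luciferase luminescence. Each compound is applied at five concentrations for 48 h at 37 C with 5% CO2.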

[6] = tested on: DIV17; assay: qHTS profiling for inhibitors of Plasmodium falciparum proliferation (AID 504749); note: nearly all actives have a fitted effect of over 60% in size; note: potency is the fitted concentration of half-maximal effect; conditions: P. falciparum in erythrocytes, SYBR Green DNA, 72 h; activity, negative = inhibition: at 28.7 µM (top of the series)
Outline: (§4)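 Fluorescence of SYBR Green-bound parasite DNA, read at 485/535 nm, served as the growth measure. Infected erythrocytes were cultured with compound 72 h; artemisinin (0.29 uM) and DMSO wells defined the normalization range.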

[7] = tested on: W2; assay: as above; conditions: P. falciparum in erythrocytes, SYBR Green DNA, 72 h; activity, negative = inhibition: at 28.7 µM (top of the series)
Outline: as §4

[8] = qHTS of pediatric cancer cell lines to identify multiple opportunities for drug repurposing: Primary screen for SK-N-MC cells (AID 1347093); conditions: SK-N-MC viability, CellTiter-Glo luminescence, 48 h; activity change, negative = cytotoxic: at 46 µM (top of the series); note: potency is the fitted concentration of half-maximal effect
Outline: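 Metabolically active cells were quantified by ATP-dependent luminescence (CellTiter-Glo, 15 min at room temperature) following 48 h treatment. Cells had been plated at 500-1,000 per well and settled for 5 h beforehand.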

[9] = target: Cytochrome P450 2D6 (Homo sapiens) (UniProt P10635); assay: Cytochrome P450 family 2 subfamily D member 6 (CYP2D6) small molecule antagonists: luciferase biochemical (cell-free) qHTS assay (AID 1645840; active = well fitted curve in the direction sought with a large enough effect in the repeat runs; inconclusive = weak or mixed curves; inactive = no such curve, though single readings can be large; an effect the other way counts as inactive or inconclusive; note: nearly all actives have a fitted effect of over 55% in size)
Chain of UniProt P10635 (P10635 whole entry, looked up): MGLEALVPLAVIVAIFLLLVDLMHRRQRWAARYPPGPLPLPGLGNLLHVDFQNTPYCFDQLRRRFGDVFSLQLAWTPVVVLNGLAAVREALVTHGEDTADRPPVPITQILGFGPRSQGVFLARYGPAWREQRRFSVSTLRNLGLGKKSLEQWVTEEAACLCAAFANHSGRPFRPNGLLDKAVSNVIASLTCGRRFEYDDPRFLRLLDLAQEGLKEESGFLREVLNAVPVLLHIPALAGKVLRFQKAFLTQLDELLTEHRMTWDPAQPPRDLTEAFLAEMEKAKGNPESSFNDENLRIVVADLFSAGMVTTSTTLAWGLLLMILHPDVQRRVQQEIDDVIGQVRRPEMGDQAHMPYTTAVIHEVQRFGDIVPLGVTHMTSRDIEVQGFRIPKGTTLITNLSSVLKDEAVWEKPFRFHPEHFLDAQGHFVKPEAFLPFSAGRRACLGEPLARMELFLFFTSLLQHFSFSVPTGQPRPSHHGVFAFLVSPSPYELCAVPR
Outline: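 P450-Glo CYP2D6 system: proluciferin substrate converted by enzyme to luciferin, read by luminescence proportional to activity. Enzyme-substrate mix with compound 10 min at room temperature, then NADPH regeneration 1 h before detection reagent.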

[10] = A High-Content qHTS Against Drug Library for the Identification of Small Molecules that Inhibit DYT1 Early Onset Primary Dystonia-Associated Cell Pathology (AID 1645839; calls by dose curve; note: potency is the fitted concentration of half-maximal effect)
Outline: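 Induced EGFP-delE TorsinA cells are imaged after 48 h of compound treatment. Punctate fusion-protein distribution gives the %pathology value, while nuclei counts flag toxicity. Wild-type EGFP-hTOR1A cells define the normal pattern.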

[11] = Primary qHTS for inhibitors of nuclear receptor binding SET domain protein 2 (NSD2) in an RCH-ACV wild type WT cells (2C) (AID 1645877); conditions: activity change, negative = cell killing: at 44.9 µM (top of the series) unless noted; note: nearly all actives have a fitted effect of over 70% in size; note: potency is the fitted concentration of half-maximal effect
[12] = tested on: WaGa; assay: qHTS assay to identify novel small-molecules to repurpose for Merkel cell carcinoma treatment (AID 1296009); conditions: MCC and control cell lines, CellTiter-Glo viability, 72 h; series mostly up to 46 µM; note: nearly all actives have a fitted effect of over 60% in size; note: potency is the fitted concentration of half-maximal effect
Outline: as §2

[13] = tested on: CAOV3; assay: Primary qHTS to identify gynecologic anti-cancer compounds using libraries of approved drugs and bioactive compounds (AID 1345084); conditions: Gynecologic cancer cell panel viability, ATPlite luminescence, 48 h; series mostly up to 57.5 µM; note: nearly all actives have a fitted effect of over 55% in size; note: potency is the fitted concentration of half-maximal effect
Outline: as §3

[14] = qHTS of pediatric cancer cell lines to identify multiple opportunities for drug repurposing: Primary screen for BT-37 cells (AID 1347094)
Outline: as §1

[15] = qHTS of pediatric cancer cell lines to identify multiple opportunities for drug repurposing: Primary screen for SK-N-SH cells (AID 1347098); note: nearly all actives have a fitted effect of over 65% in size; note: potency is the fitted concentration of half-maximal effect;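 for activity change, negative = cytotoxic: DMSO served as neutral control and bortezomib at 2.3 µM as positive control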
Outline: (§5)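 Cells (500-1,000/well) rested 5 h, then received compounds for 48 h; metabolically active cells were measured by CellTiter-Glo luminescence. Final concentrations spanned up to 46 µM (MIPE, 11-point) or 0.59 nM-46 µM (NPC, 8-point) in primary screens, 11-point in follow-ups.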

[16] = qHTS of pediatric cancer cell lines to identify multiple opportunities for drug repurposing: Primary screen for OHS-50 cells (AID 1347103); conditions: OHS-50 osteosarcoma viability, CellTiter-Glo luminescence, 48 h; activity change, negative = cytotoxic: at 57.3 µM (top of the series); note: nearly all actives have a fitted effect of over 40% in size; note: potency is the fitted concentration of half-maximal effect
Outline: as §5

[17] = Primary qHTS for inhibitors of nuclear receptor binding SET domain protein 2 (NSD2) in an isogenic RCH-ACV NSD2 p.E1099K mutant (9B) (AID 1645876); conditions: activity change, negative = viability loss: at 44.9 µM (top of the series) unless noted; note: nearly all actives have a fitted effect of over 70% in size; note: potency is the fitted concentration of half-maximal effect
[18] = Drug repurposing screens with cells derived from glioblastoma tumor samples (AID 1345199); conditions: GBM patient neurospheres viability, ATP luminescence, 48 h; Potency: tumour line A unless noted; activity, negative = cell killing: at 46 µM (top of the series), tumour line A unless noted; note: nearly all actives have a fitted effect of over 40% in size; note: potency is the fitted concentration of half-maximal effect
Outline: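 Primary testing used CD133+ neurospheres from four GBM patients, seven concentrations, 48 h exposure and ATP-based viability; confirmation added three slower-growing patient lines.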

[19] = qHTS of pediatric cancer cell lines to identify multiple opportunities for drug repurposing: Primary screen for A673 cells (AID 1347092); conditions: A673 Ewing sarcoma viability, CellTiter-Glo ATP luminescence, 48 h; activity change, negative = cytotoxic: at 46 µM (top of the series); note: nearly all actives have a fitted effect of over 45% in size
Outline: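 Cell viability of A673 measured by CellTiter-Glo ATP luminescence after 48 hours compound exposure. Dilution series spanned 0.78 nM to 46 µM (MIPE, 11-point) or 0.59 nM to 46 µM (NPC, 8-point); bortezomib 2.3 uM positive control.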
Tags give direction and shape of the fitted curve.

## CCCCCC(C)N (stereo not given)
[1]
  Potency: inactive
[2]
  Potency: inactive
[3]
  Potency: inconclusive: 5.62 µM [inhibitor, partial curve, poor fit]
[4]
  Potency: inactive
[5]
  Potency: inactive
[6]
  Potency: inconclusive: 16.9 µM [inhibitor, partial curve, poor fit]
[7]
  Potency: inconclusive: 13.5 µM [inhibitor, single point]

## CCCCC(O)/C=C(C)/C=C/C=C/C(=O)N1CCCC1=O (stereo not given)
[8]
  Potency: inactive
[3]
  Potency: inactive
[9]
  Potency: inactive
[4]
  Potency: inactive
[5]
  Potency: inconclusive: 20 µM [rising, partial curve, poor fit]

## Nc1nnnn1-c1ccccc1
[8]
  Potency: inconclusive: 0.003 µM [cytotoxic, full curve, poor fit]
[3]
  Potency: inconclusive: 28.2 µM [inhibitor, single point]
[10]
  Potency: inactive
[9]
  Potency: inactive
[4]
  Potency: inactive

## CC(=O)c1cc2ccccc2s1
[8]
  Potency: inactive
[11]
  Potency: inactive
[12]
  Potency: inactive
[13]
  Potency: inactive
[5]
  Potency: inactive

## CCN(CC)CCOc1ccccc1C(=O)CCc1ccccc1
[14]
  Potency: inactive
[15]
  Potency: inconclusive: 21.7 µM [cytotoxic, single point]
[16]
  Potency: inconclusive: 24.6 µM [cytotoxic, single point]
[2]
  Potency: inactive
[10]
  Potency: inconclusive: 25.1 µM [inhibitor, single point]
[11]
  Potency: inconclusive: 29.9 µM [inhibitor, single point]
[12]
  Potency: inconclusive: 21.1 µM [inhibitor, single point]
[13]
  Potency: inconclusive: 6.31 µM [cytotoxic, single point]
[6]
  Potency: active: 7.57 µM

## O=C(/C=C/c1ccc(O)c(O)c1)O[C@@H]1C[C@@](OC(=O)/C=C/c2ccc(O)c(O)c2)(C(=O)O)C[C@@H](O)[C@@H]1O
[17]
  Potency: inconclusive: 29.9 µM [inhibitor, single point]
[11]
  Potency: inconclusive: 33.5 µM [inhibitor, single point]
[12]
  Potency: inactive

## NC1CCN(c2cccc(Cl)n2)CC1
[8]
  Potency: inactive
[3]
  Potency: inconclusive: 31.6 µM [inhibitor, partial curve] and inconclusive: 31.6 µM [inhibitor, partial curve, poor fit]
[10]
  Potency: inconclusive: 10 µM [inhibitor, partial curve]
[17]
  Potency: inactive
[11]
  Potency: inactive
[12]
  Potency: inactive
[6]
  Potency: inconclusive: 0.0536 µM [inhibitor, full curve, poor fit]
[7]
  Potency: active: 6.01 µM

## O=c1[nH]cnc2nc[nH]c12
[1]
  Potency: inactive
[16]
  Potency: inactive
[12]
  Potency: inactive
[7]
  Potency: inactive

## COc1ccccc1OCC1CNC(=O)O1 (stereo not given)
[2]
  Potency: inactive
[10]
  Potency: inconclusive: 35.5 µM [inhibitor, single point]
[11]
  Potency: inactive
[12]
  Potency: inactive
[5]
  Potency: inconclusive: 39.8 µM [rising, single point]
[18]
  Potency: inactive

## C[C@@H]1C[C@H]2[C@@H]3C[C@H](F)C4=CC(=O)C=C[C@]4(C)[C@@]3(F)[C@@H](O)C[C@]2(C)[C@@]1(O)C(=O)CO
[17]
  Potency: inconclusive: 266 nM [inhibitor, partial curve] and inconclusive: 6.5 nM [inhibitor, full curve, poor fit]
[4]
  Potency: inactive

## CCOc1ccc2ccccc2c1C(=O)N[C@@H]1C(=O)N2[C@@H]1SC(C)(C)[C@@H]2C(=O)O
[3]
  Potency: inconclusive: 3.16 µM [inhibitor, partial curve, poor fit]
[17]
  Potency: inconclusive: 29.9 µM [inhibitor, single point]
[11]
  Potency: inconclusive: 26.6 µM [inhibitor, single point]
[12]
  Potency: inactive
[5]
  Potency: inactive
[7]
  Potency: inconclusive: 0.0016 µM [inhibitor, full curve, poor fit]

## CCCCCC[C@@H](CCC)C(=O)O
[14]
  Potency: inactive
[15]
  Potency: inactive
[16]
  Potency: inactive
[12]
  Potency: inactive
[18]
  Potency: inconclusive: 28.2 µM [inhibitor, partial curve]

## CCCCCCn1c(=O)c2c(ncn2C)n(C)c1=O
[19]
  Potency: inactive
[16]
  activity change, negative = cytotoxic: inconclusive: -32% [cytotoxic]
[2]
  Potency: inactive
[12]
  Potency: inactive

## CC(=O)Nc1nnc(S(N)(=O)=O)s1
[8]
  Potency: inactive
[14]
  Potency: inactive
[1]
  Potency: inconclusive: 13.3 µM [cytotoxic, partial curve, poor fit]
[2]
  Potency: inactive
[3]
  Potency: inconclusive: 35.5 µM [inhibitor, partial curve, poor fit]
[10]
  Potency: inactive
[12]
  Potency: inactive
[5]
  Potency: inconclusive: 2 µM [rising, partial curve, poor fit]
[18]
  Potency: inactive
[7]
  Potency: inactive

## CCN(CC)CC1CCCCN1CC(=O)N1c2ccccc2C(=O)Nc2cccnc21 (stereo not given)
[2]
  Potency: inactive
[3]
  Potency: inactive
[17]
  Potency: inconclusive: 26.6 µM [inhibitor, single point]
[11]
  Potency: inconclusive: 29.9 µM [inhibitor, single point]
[4]
  Potency: inactive
[5]
  Potency: inactive
